Results reported in publication PMC10668032.
This is one part of the list. At the low end of the ranking, values are background and their order means little.

molecular target: SIX1 homeodomain (reference allele) (UniProt Q15475); experiment: universal protein binding microarray; conditions: Universal all-10-mer PBM (8x60K, AMADID 030236), 300 nM GST-tagged protein, Alexa Fluor 488 anti-GST; buffer, salt, pH and temperature not stated; high values mean tight binding; most listed sequences are background and not binding sites; double strand, one strand shown

Sequence	binding signal
AGCGCAGC	-0.211 E-score
CTCAGAAA	-0.0957 E-score
AGTTAAAC	-0.0742 E-score
GACAAAAC	-0.255 E-score
AGCACTAA	-0.0968 E-score
GAAGACCC	-0.19 E-score
CCGTGTTC	0.155 E-score
CCCTAGGG	-0.134 E-score
CAACTGAC	-0.201 E-score
ACGTACCC	0.143 E-score
AGCGTCTA	-0.0463 E-score
AAAATGGA	-0.0815 E-score
CTCCTGCC	-0.0145 E-score
GCCCCAGA	-0.0688 E-score
CCAGGGAA	-0.278 E-score
GAGCGGAA	-0.0988 E-score
TCCACAGA	0.0821 E-score
AGCTTCAA	-0.115 E-score
CAGGGGCG	-0.017 E-score
CCCGATAG	0.205 E-score
CCCTCAAG	0.0889 E-score
CCGTGAGC	-0.0849 E-score
AACGTTCT	-0.106 E-score
CCCAGTTA	0.122 E-score
AACGGGCT	-0.225 E-score

Sequence	binding signal
CGCCCGCA	-0.0595 E-score
CGCCCTCC	-0.00369 E-score
CGGATCTC	0.342 E-score
AGGCGGGA	0.0418 E-score
CCTAATTA	-0.129 E-score
CCCCCCCA	0.0163 E-score
CCGTCAAC	-0.19 E-score
CTGGCCCC	-0.0179 E-score
CAAAGTAA	-0.229 E-score
ACCGGCCT	-0.217 E-score
GTTGTCCA	-0.212 E-score
ACTTAGAT	0.164 E-score
ACAGGTAC	-0.0272 E-score
GTTGGTGA	-0.115 E-score
TATAGCAA	0.0737 E-score
AGTCTATA	0.0401 E-score
GCCAAACA	-0.257 E-score
ACCTTGCA	0.0625 E-score
GTGCAAAA	-0.0971 E-score
TCGTCTAA	-0.0542 E-score
ACGGACGC	-0.321 E-score
ACGTTGCA	-0.154 E-score
GGGAGAAC	-0.0801 E-score
ATAACTTA	-0.021 E-score
GCCTCGAC	-0.105 E-score

Sequence	binding signal
CTACAGCC	-0.173 E-score
ATACAAAG	0.0766 E-score
GCACTGCC	-0.162 E-score
AGAGCGCA	-0.0695 E-score
AGCTTATC	0.0649 E-score
CGTACGGC	-0.00038 E-score
GGGATCAC	0.445 E-score
GTACTCAC	-0.0158 E-score
ACGGCTCA	0.128 E-score
ATTCCGGG	0.0498 E-score
ACTATATC	0.367 E-score
ATGGAATA	0.171 E-score
AAAGTTCC	-0.343 E-score
ACGGCATC	-0.0794 E-score
AGTCGCCA	-0.202 E-score
CGTTGTTC	-0.234 E-score
AAGTGCAC	-0.183 E-score
AAAAATCT	-0.186 E-score
AAGACGCG	-0.0652 E-score
CGTAGGAC	-0.0408 E-score
AGACAAAC	-0.0778 E-score
CGACTCCA	0.0717 E-score
ACCGGAAT	0.0349 E-score
AGTATGTA	0.0608 E-score
AATATGGT	0.177 E-score

Sequence	binding signal
TATTCAAA	0.121 E-score
AGAGTCGA	-0.107 E-score
TAAACAGA	-0.213 E-score
GCTATCTA	0.169 E-score
CCCGGAGA	0.169 E-score
AGTCGTAC	-0.214 E-score
TACGGTCA	-0.00978 E-score
CCTCGGGC	-0.112 E-score
ACCGGTGC	-0.0854 E-score
ACCATCGG	0.0183 E-score
GATCCCTA	0.383 E-score
AGAGGGGG	0.0205 E-score
ATATGCAT	0.269 E-score
ATGAGAGC	-0.0611 E-score
ACTACGAT	0.167 E-score
GAAGAATA	0.00835 E-score
GGACAGCC	0.0364 E-score
ACAAGACG	0.0907 E-score
ACGCCGTA	-0.0195 E-score
ACTGTGAC	-0.167 E-score
GGTCGCTA	-0.176 E-score
GGTTACAA	-0.0718 E-score
ACAACACC	0.23 E-score
AGCTTAAA	-0.211 E-score
GACGCAGA	-0.0313 E-score

Sequence	binding signal
CTATGTTA	-0.153 E-score
CCCTGTCG	-0.0644 E-score
GACCGCAA	-0.0619 E-score
CACTGTTA	-0.0329 E-score
ACAAGAGC	-0.146 E-score
CCATGCCA	-0.0298 E-score
CATACCAA	0.0132 E-score
AGTCATCC	-0.0168 E-score
CAGTGTGG	-0.124 E-score
GACTAGAC	-0.0753 E-score
CAGTGGCC	-0.24 E-score
GATGCTTA	-0.109 E-score
TAACATAA	0.0412 E-score
CCAGCAAA	0.0567 E-score
CCTTATCA	0.12 E-score
ACTATTGG	-0.253 E-score
GCGTACGA	-0.2 E-score
CGGGCGCC	-0.243 E-score
ATAATCTA	0.148 E-score
CCTAGCAG	-0.0966 E-score
CCACACTA	-0.0224 E-score
CACCAATA	0.101 E-score
AAAGTGTC	0.134 E-score
GCAGGAAC	-0.193 E-score
ATTTCACC	-0.0602 E-score

Sequence	binding signal
ACGTTACT	-0.158 E-score
CTATACTA	0.168 E-score
GTACAACA	-0.0812 E-score
CAGCATTA	-0.109 E-score
CCTGTTCG	-0.184 E-score
CGCGGCTC	-0.0224 E-score
GGCAAGCC	-0.356 E-score
AAGAGATG	0.114 E-score
TATGAACA	0.0466 E-score
AGACAGTA	-0.00248 E-score
TCGATCAA	-0.236 E-score
TCAACGGA	-0.0228 E-score
AATTAGTC	-0.0591 E-score
ATCCTAAT	0.159 E-score
CTGACCTC	-0.208 E-score
CAACTTAA	-0.217 E-score
CTCTTCGA	0.062 E-score
AGGTAGGA	-0.037 E-score
GAACGACC	-0.161 E-score
CCCCTGCG	-0.0865 E-score
ATGTTACA	-0.0749 E-score
ATAGGATC	0.367 E-score
GCCCATAC	0.0867 E-score
AGCGTCAC	-0.236 E-score
AGAACTAG	-0.155 E-score

Sequence	binding signal
CCCCACTC	0.0317 E-score
GCAACACA	-0.242 E-score
CGATCTTC	0.288 E-score
AAGTCTAT	-0.233 E-score
GACGAACC	0.0379 E-score
GCCCCGGC	-0.0441 E-score
GATAACCC	0.22 E-score
ATGTAATG	0.018 E-score
GACCGGTA	-0.0336 E-score
AGGTTGGA	-0.0662 E-score
ACCGTCGG	-0.0916 E-score
AGACACAT	0.102 E-score
GTATGGCA	-0.105 E-score
GACTTTGC	-0.248 E-score
CTGCACAG	-0.0147 E-score
GACACATA	0.129 E-score
AAGCGGTG	-0.0255 E-score
CCATGCCG	-0.0631 E-score
CCCAGAGC	-0.195 E-score
AAGGAAAA	-0.283 E-score
CCCACTAA	0.0575 E-score
GCTATGCA	-0.137 E-score
